According to article PMC11995724, “Antibiotic target discovery by integrated phenotypic and activity-based profiling of electrophilic fragments” (Cell chemical biology, 2025):
About 75 (2%) of roughly 3,200 compounds showed an effect of 50% or more. The list shows a part of the results.

What follows are compounds tested on T1, S. aureus MSSA476. Conditions: relative growth, OD600, TSB; 25 µM; inhibitor.
T1 construct: MSSA476
Parameters: species or system S. aureus MSSA476 (TSB) or V. cholerae SAD30 (LB); 384-well bacterial growth screen at 25 uM, OD600 relative to DMSO control

SMILES	% of control remaining
CCC(NC(=O)CCl)c1nc(C)n[nH]1 (stereo not drawn) [5-O14, 2-chloro-N-[1-(3-methyl-1H-1,2,4-triazol-5-yl)propyl]acetamide]	76.1384%
CC(NC(=O)CCl)c1cc(C(F)(F)F)[nH]n1 (stereo not drawn) [5-P11, 2-chloro-N-{1-[5-(trifluoromethyl)-1H-pyrazol-3-yl]ethyl}acetamide]	115.483%
Cc1cc(C(=O)CCl)c(C)n1-c1ccccn1 [10-C16, 2-chloro-1-[2,5-dimethyl-1-(pyridin-2-yl)-1H-pyrrol-3-yl]ethan-1-one]	117.5%
CCc1ccccc1NC(=O)CNC(=O)CCl [4-I08, 2-chloro-N-{[(2-ethylphenyl)carbamoyl]methyl}acetamide]	100.619%
CCOc1cccc(N2CCN(C(=O)C(C)Cl)CC2)n1 (stereo not drawn) [7-G07, 2-chloro-1-[4-(6-ethoxypyridin-2-yl)piperazin-1-yl]propan-1-one]	80.0628%
CCCc1ccc(NC(=O)CCl)cc1 [6-I22, 2-chloro-N-(4-propylphenyl)acetamide]	77.1707%
C=CC(=O)NCC1CCN(c2ccccc2)C1 (stereo not drawn) [3-B17, N-[(1-phenylpyrrolidin-3-yl)methyl]prop-2-enamide]	146.626%
C=CC(=O)N1CCC(C(=O)NCc2ccc(C(N)=O)cc2)CC1 [3-J08, N-[(4-carbamoylphenyl)methyl]-1-(prop-2-enoyl)piperidine-4-carboxamide]	108.663%
N#CC(=Cc1ccccc1)C(=O)Nc1ccccc1-c1ccccc1 [8-A15, N-{[1,1'-biphenyl]-2-yl}-2-cyano-3-phenylprop-2-enamide]	109.876%
Cc1ccc(NC(=O)C(C#N)=Cc2cccc(F)c2)cc1 [8-F11, 2-cyano-3-(3-fluorophenyl)-N-(4-methylphenyl)prop-2-enamide]	89.2946%
Cc1cccc(CN(C(=O)CCl)C(C)C)c1 [6-J05, 2-chloro-N-[(3-methylphenyl)methyl]-N-(propan-2-yl)acetamide]	103.122%
CC(c1ccccc1F)N1CCCC(NC(=O)CCl)C1=O (stereo not drawn) [5-I10, 2-chloro-N-{1-[1-(2-fluorophenyl)ethyl]-2-oxopiperidin-3-yl}acetamide]	120.583%
O=C(CCl)NS(=O)(=O)c1ccc(Cl)cc1 [4-E18, 2-chloro-N-(4-chlorobenzenesulfonyl)acetamide]	125.012%
Cc1ccc(N2CCN(C(=O)C(C)Cl)CC2=O)o1 (stereo not drawn) [7-A16, 4-(2-chloropropanoyl)-1-(5-methylfuran-2-yl)piperazin-2-one]	110.518%
C=CCNC(=O)C(C#N)=Cc1ccc2c(c1)OCCO2 [9-L06, 2-cyano-3-(2,3-dihydro-1,4-benzodioxin-6-yl)-N-(prop-2-en-1-yl)prop-2-enamide]	115.356%
COc1ccccc1NC(=O)C(C#N)=Cc1cc(C)c(C)cc1C [9-A10, 2-cyano-N-(2-methoxyphenyl)-3-(2,4,5-trimethylphenyl)prop-2-enamide]	92.2846%
Cc1ccc2nc(-c3ccc(F)cc3)c(CNC(=O)C(C)Cl)n2c1 (stereo not drawn) [5-D21, 2-chloro-N-{[2-(4-fluorophenyl)-6-methylimidazo[1,2-a]pyridin-3-yl]methyl}propanamide]	95.082%
CC(NC(=O)C(C#N)=Cc1ccc2c(c1)OCCO2)c1ccccc1 (stereo not drawn) [8-M15, 2-cyano-3-(2,3-dihydro-1,4-benzodioxin-6-yl)-N-(1-phenylethyl)prop-2-enamide]	91.6183%
Cc1ccc(S(=O)(=O)N2CCSSCC2)c(F)c1 [10-L09, 5-(2-fluoro-4-methylbenzenesulfonyl)-1,2,5-dithiazepane]	114.687%
O=C(CCl)NCCc1ccc(Cl)cc1 [4-O12, 2-chloro-N-[2-(4-chlorophenyl)ethyl]acetamide]	97.9514%
O=C(CCl)NCC(=O)Nc1ccc(F)c(F)c1 [4-L16, 2-chloro-N-{[(3,4-difluorophenyl)carbamoyl]methyl}acetamide]	109.004%
CC(Cl)C(=O)N(C)C(C)c1ccccc1N1CCCS1(=O)=O (stereo not drawn) [6-D05, 2-chloro-N-{1-[2-(1,1-dioxo-1lambda6,2-thiazolidin-2-yl)phenyl]ethyl}-N-methylpropanamide]	95.2683%
CC1CCCCC1NC(=O)C(C#N)=CC=Cc1ccccc1[N+](=O)[O-] (stereo not drawn) [8-F12, 2-cyano-N-(2-methylcyclohexyl)-5-(2-nitrophenyl)penta-2,4-dienamide]	110.207%

SMILES	% of control remaining
CC(=O)Nc1ccc(C(=O)CCl)cc1 [10-O12, N-[4-(2-chloroacetyl)phenyl]acetamide]	6.875%
CC(O)CN(Cc1ccc(Cl)c(F)c1)C(=O)CCl (stereo not drawn) [5-K12, 2-chloro-N-[(4-chloro-3-fluorophenyl)methyl]-N-(2-hydroxypropyl)acetamide]	102.732%
COc1ccc(NC(=O)C(C#N)=Cc2c(C)n[nH]c2C)cc1 [8-I04, 2-cyano-3-(3,5-dimethyl-1H-pyrazol-4-yl)-N-(4-methoxyphenyl)prop-2-enamide]	88.9627%
C=CC(=O)Nc1cnn(CCN2CCCC2=O)c1 [3-M18, N-{1-[2-(2-oxopyrrolidin-1-yl)ethyl]-1H-pyrazol-4-yl}prop-2-enamide]	98.9116%
COc1ccc(-c2nn(-c3ccccc3)cc2C=C(C#N)C(N)=O)cc1 [8-L16, 2-cyano-3-[3-(4-methoxyphenyl)-1-phenyl-1H-pyrazol-4-yl]prop-2-enamide]	92.6141%
COc1cc(C=C(C#N)C(=O)Nc2ccc(F)cc2)cc(Cl)c1O [8-H07, 3-(3-chloro-4-hydroxy-5-methoxyphenyl)-2-cyano-N-(4-fluorophenyl)prop-2-enamide]	81.9917%
C=CC(=O)NCc1ccccc1S(=O)(=O)N1CCCC1 [2-L17, N-{[2-(pyrrolidine-1-sulfonyl)phenyl]methyl}prop-2-enamide]	128.111%
N#CC(=Cc1cccc2ccccc12)C(=O)NCc1ccco1 [8-N15, 2-cyano-N-[(furan-2-yl)methyl]-3-(naphthalen-1-yl)prop-2-enamide]	108.88%
CCc1cccc2c(C(=O)CCl)c[nH]c12 [10-C12, 2-chloro-1-(7-ethyl-1H-indol-3-yl)ethan-1-one]	103.438%
Cc1cc(C)c(-c2csc(NC(=O)CCl)n2)cc1C [4-G17, 2-chloro-N-[4-(2,4,5-trimethylphenyl)-1,3-thiazol-2-yl]acetamide]	67.8418%
C=CC(=O)N1CCC(C(=O)Nc2ccc(N)c([N+](=O)[O-])c2)CC1 [3-E20, N-(4-amino-3-nitrophenyl)-1-(prop-2-enoyl)piperidine-4-carboxamide]	105.181%
O=C(CCl)NC1CCCCCC1 [5-H16, 2-chloro-N-cycloheptylacetamide]	82.6958%
O=C(CCl)Nc1ccc2c(c1)oc1ccccc12 [6-A13, 2-chloro-N-{8-oxatricyclo[7.4.0.0,2,7]trideca-1(9),2(7),3,5,10,12-hexaen-5-yl}acetamide]	102.098%
C=CC(=O)NCCc1ccc(S(N)(=O)=O)cc1 [2-B13, N-[2-(4-sulfamoylphenyl)ethyl]prop-2-enamide]	155.614%
C=CC(=O)Nc1ccc(N2CCCCC2)c(F)c1 [2-I22, N-[3-fluoro-4-(piperidin-1-yl)phenyl]prop-2-enamide]	91.2097%
CN(CC(=O)Nc1ccc(Cl)c(C(F)(F)F)c1)C(=O)CCl [4-E19, 2-chloro-N-({[4-chloro-3-(trifluoromethyl)phenyl]carbamoyl}methyl)-N-methylacetamide]	114.721%
Cc1nn(C)c(C)c1C=C(C#N)C(=O)Nc1ccccc1Cl [9-F11, N-(2-chlorophenyl)-2-cyano-3-(1,3,5-trimethyl-1H-pyrazol-4-yl)prop-2-enamide]	81.4981%
CN(CC(=O)NC1CCC(O)CC1)C(=O)CCl (stereo not drawn) [7-L08, 2-chloro-N-{[(4-hydroxycyclohexyl)carbamoyl]methyl}-N-methylacetamide]	92.3077%
O=C(CCl)Nc1cccc(NC(=O)c2ccccc2)c1 [6-A03, N-[3-(2-chloroacetamido)phenyl]benzamide]	76.1463%
N#CC(=Cc1ccsc1)C(=O)Nc1ccccc1Cl [9-O05, N-(2-chlorophenyl)-2-cyano-3-(thiophen-3-yl)prop-2-enamide]	99.176%
CC(Cl)C(=O)N(C)C[C@@H]1C[C@H](F)CN1c1ccnc(N(C)C)n1 (stereo partly drawn) [7-K16, 2-chloro-N-{[(2S,4S)-1-[2-(dimethylamino)pyrimidin-4-yl]-4-fluoropyrrolidin-2-yl]methyl}-N-methylpropanamide]	97.6452%
O=C(CCl)N(Cc1ccco1)c1ccccc1 [4-L14, 2-chloro-N-[(furan-2-yl)methyl]-N-phenylacetamide]	118.914%
